Screen size: about 48,000 compounds; about 120 (0.25%) were called active. Another 4% or so got no clear call; they are omitted. Calls come from the whole dose curve; as a rule, active = well fitted activation curve with a large enough effect; inconclusive = small, poorly fitted or top-dose-only effect, or another doubt; inactive = no such curve, though single readings can be large or run the other way. This is one part of the list.
Test: Primary qHTS for Identification of Small Molecule Activators of Huntingtin-Antisense Promoter Activity; note: nearly all actives have a fitted effect of over 55% in size
Details: HEK293 HTT-AS promoter firefly luciferase reporter, 24 h; series mostly up to 57.5 µM; activity change, positive = activation: at the top concentration
Outline: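 Firefly luciferase readout (Dual-Glo, 10 min RT) after 24 h, 37 °C compound exposure (final up to 57.5 uM) of HEK293 reporter cells cultured 24 h beforehand; PTC124 at 50 uM final as control inhibitor; activity scaled vehicle 0%, zero RLU -100%.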

Activity change, positive = activation, inactive:
O=C(c1ccc2c(c1)N(Cc1ccccc1)C(=O)c1ccccc1S2(=O)=O)N1CCCC1 -33.3%
CCC(Sc1nc2c(sc3ccccc32)c(=O)n1CCc1ccccc1)C(=O)N(CC)CC (configuration not stated) 7.59%
COc1cccc(CCNC(=O)Cn2c(-c3cccs3)cc3ccccc32)c1 -33%
COc1ccc(Cn2c(C(=O)O)c(CNCC(C)c3ccccc3)c3ccc(OC)cc32)cc1 (configuration not stated) -35.7%
COc1ccc(NC(=O)CN2C(=O)C(c3ccc(C(C)(C)C)cc3)=NC2(C)C)cc1Cl 8.13%
Cc1ccc(C)c(N2CCN(C(=O)Nc3cn(CC(C)C)c(=O)c4ccccc34)CC2)c1 -20.8%
CCCN1C(=O)C(O)(CC(=O)c2ccc(OC)c(OC)c2)c2ccccc21 (configuration not stated) -28.3%
CN1CCN(C(=O)c2ccc3c(c2)N(Cc2cccc(Cl)c2)C(=O)c2ccccc2S3(=O)=O)CC1 -8.27%
COc1ccccc1CNC(=O)C1CCN(S(=O)(=O)c2c(C)noc2/C=C/c2c(C)cc(C)cc2C)CC1 1.61%
O=C(Nc1ccc2nc(SCCOc3ccccc3)sc2c1)c1cccs1 -18.3%
O=C(Nc1ccc(C(F)(F)F)cc1)c1cc(S(=O)(=O)NC2CCCCC2)ccc1F -39.1%
COc1cc(O)c2c(c1)C(=O)c1cc(C)cc(O)c1C2=O -3.29% [at 25.1 µM, percent change from vehicle, -100% = no light]
COc1cccc(CNC(=O)CSc2ncc3c(n2)-c2cc(Cl)ccc2N(C)S3(=O)=O)c1 4.88%
CCc1ccc(NC(=O)c2ccc(F)c(S(=O)(=O)NC3CCCCCC3)c2)cc1 -36.8%
Cc1coc2c(C)c3oc(=O)c(CC(=O)NCc4ccccc4)c(C)c3cc12 -14.8%
Cc1c(Cl)cccc1NC(=O)CN1C(=O)COc2ccc(S(=O)(=O)N3CCCCCC3)cc21 -5.49%
Cc1ccc(-n2nnc(-c3nsc(NC(=O)c4ccccc4)n3)c2C)cc1 22.7%
CCc1cccc(C)c1NS(=O)(=O)c1cc(-c2cc(C)no2)ccc1C -19.9%
CCOc1ccc(OCC(=O)NCCS(=O)(=O)N2CCN(c3ccc(F)cc3)CC2)cc1 2.07%
Cc1ccc(-n2nc3ccc(NC(=O)c4oc5ccc(C)cc5c4C)cc3n2)cc1 5.75%
CCOC(=O)n1ccn(C)c1=S -10.4%
O=C(CCC1CCCC1)N1CCc2c([nH]c3ccccc23)C1c1ccc(Cl)cc1 (configuration not stated) -36.2%
O=C(Nc1ccccc1F)c1nc(SCc2ccc(F)cc2)ncc1Cl -11.3%
CCCOc1ccccc1C(=O)N1CCCCC1CCN1CCOCC1 (configuration not stated) -3.26%
CCN(C(=O)Cn1ncc2c(=O)oc3ccc(C)cc3c21)c1cc(OC)ccc1OC -15%
CCOC(=O)C1CCCN(S(=O)(=O)c2ccc(N3CCCCS3(=O)=O)cc2)C1 (configuration not stated) -7.08%
CC1CCc2noc(NC(=O)c3ccccc3[N+](=O)[O-])c2C1 (configuration not stated) -12.1%
Cc1cc(C(F)F)n2nc(C(=O)Nc3cc(Cl)ccc3C)nc2n1 -7.23%
COc1ccc(C(=O)Oc2c(Sc3ccc(Cl)cc3)c(C)nn2C(C)(C)C)cc1OC -41.4%
COc1ccc(NC(=O)CCCn2c(=O)c3cccn3c3ccccc32)c(OC)c1 7.81%
O=C(NCCc1csc(-c2ccc(C(F)(F)F)cc2)n1)C(=O)Nc1cc(F)ccc1F -4.63%
O=C(Cn1c(=O)c2ccccc2n(CC(=O)Nc2ccc(Cl)cc2)c1=O)NCCc1ccccc1 -34.3%
CCCCN(C)CCNC(=O)C1CCCN(S(=O)(=O)c2ccc3c(c2)oc(=O)n3C)C1 (configuration not stated) -0.737%
Cc1c(CCNC(=O)Cc2ccc(F)cc2)sc2nc(-c3ccc(F)cc3)nn12 5.51%
CCOC(=O)c1c(C)[nH]c(CCC(=O)NCCCN2CCN(c3cc(Cl)ccc3C)CC2)c1C -40%
CCc1ccccc1NC(=O)Cn1c(=O)n(CCCS(=O)(=O)C2CCCCC2)c(=O)c2ccccc21 -20.9%
CCOc1ccc(C(=O)Nc2cccc(OCc3cc(=O)n4ccccc4n3)c2)cc1 7.47%
CCOC(=O)c1[nH]c(C)c(CCC(=O)Nc2ccc(C(C)=O)cc2)c1C -3.49%
Cc1ccccc1NS(=O)(=O)c1nnc(NC(=O)c2ccc(Cl)cc2)s1 -10.5%
Cc1cccc(CNS(=O)(=O)c2csc(C(N)=O)c2)c1 -15.7%
CCOc1cccc(CNCCNC(=O)c2nonc2N)c1 -22.2%
O=C1C(c2cccc(Br)c2)N(CCc2ccccc2)C(=O)CN1C1CCCCC1 (configuration not stated) -16.5%
Cc1ccc(Cl)cc1-n1c(=O)c2sc3ccccc3c2n(CC(=O)NC2CCCCC2)c1=O -24.6%
COc1ccc(CNC(=O)Cn2c(=O)oc3cc(S(=O)(=O)N4CCC(C)CC4)ccc32)cc1 -2.36%
COc1cccc(CNC(=O)CN2C(=O)CSc3c2c(C)nn3-c2ccccc2)c1OC -21.7%
Cc1cccc(C)c1NC(=O)c1nc(S(C)(=O)=O)ncc1N(Cc1ccc(F)cc1)Cc1ccco1 -32.5%
CCOC(=O)c1cnc2c(C)cc(C)cc2c1NCCc1ccc(OC)c(OC)c1 -4.53%
Cc1cc(-c2ccc(C)c(S(=O)(=O)Nc3ccccc3C(F)(F)F)c2)on1 -35.8%
COc1ccc(C(=O)N(Cc2ccc(N(C)C)cc2)Cc2ccco2)cc1Cl -34.9%
Cc1ccc2c(CC(=O)NCc3ccccc3)coc2c1C -16.6%
O=c1c2sc3ccccc3c2n(Cc2ccccc2Cl)c(=O)n1Cc1ccccc1 -5%
Cc1ccc(C)n1-c1c(C(=O)NCC(C)c2ccccc2)sc2ncccc12 (configuration not stated) -21.3%
COc1cc(NC(=O)N2CCc3c(sc4c3CCCC4)C2c2ccccc2)cc(OC)c1OC (configuration not stated) -49.6%
CCOc1ccc(CNC(=O)CSc2nnc(C)c3c(C)n(-c4ccc(Cl)cc4)nc23)cc1 -18.5%
O=C(CN1C(=O)COc2ccc(S(=O)(=O)NC3CCCC3)cc21)NCc1ccc(Cl)cc1 -18.4%
CCN(CC)CCSc1c(C(C)C)cnc2c1c(=O)n(C)c(=O)n2C -1.55%
COc1ccc(OC)c2sc(N3CCN(C(=O)c4ccco4)CC3)nc12 -16.5%
CCOC(=O)N1CCN([N+]([O-])=NOc2ccc([N+](=O)[O-])cc2[N+](=O)[O-])CC1 -20.1%
COc1ccc(-c2cc(C(F)(F)F)nc(SCCC(=O)Nc3ccc(OC)c(OC)c3)n2)cc1 -27.6%
CCCCc1nnc(SCc2cc(=O)c3cc(F)ccc3[nH]2)n1C -28.9%
CCN(CC)C(=O)c1c(NC(=O)c2cccc(C)c2)sc2c1CCC(C)C2 (configuration not stated) -1.75%
CCN1CCC(N(Cc2ccc3c(c2)OCO3)C(=O)Nc2cc(F)ccc2F)CC1 -5.93%
Cc1ccc(NC(=O)c2sc3nc(-c4cccs4)ccc3c2N)cc1F 2.69%
CC(C)(C)NC(=O)C1CCN(c2nc3ccccc3nc2C(F)(F)F)CC1 -4.84%
COc1ccc(C(=O)NCCn2cc(SCc3c(F)cccc3Cl)c3ccccc32)cc1 -55%
Cc1ccc(-n2ncc3c(NC4CCCCCC4)ncnc32)cc1 -4.58%
O=c1[nH]c2cc(Br)ccc2n2cccc12 9.77%
O=C(O)c1ccccc1Nc1cc(Cl)ccc1C(=O)O -6.48% [at 25.1 µM, percent change from vehicle, -100% = no light]
O=C(c1cnc(N2CCOCC2)c2ccccc12)N1CCN(c2ccccc2)CC1 -25.9%
Cn1nnnc1SCCCNCc1ccccc1OCc1ccc(Cl)cc1 -21%
NS(=O)(=O)c1cc2c(cc1Cl)NC(CSCc1ccccc1)=NS2(=O)=O -9.9%
O=C(NCc1ccccc1Cl)c1ccc(CS(=O)(=O)c2ccc(Br)cc2)o1 -34.2%
CCN(CC)S(=O)(=O)c1ccc2c(c1)N(CC(=O)N1CCN(c3cccc(C)c3C)CC1)C(=O)CO2 -21.8%
Cc1cc(C)c(NC(=O)Cn2c(=O)n(CCC(=O)N3CCc4ccccc4C3)c(=O)c3ccccc32)c(C)c1 -17.3%
Clc1ccc(-n2ncc3c(NC4CCCC4)ncnc32)cc1 -40.3%
Cc1c(CNC2CCCCC2)c(C(=O)O)c(C)n1Cc1ccc(Cl)cc1 -16.5%
Cc1ccc(Cn2c3ccccc3c3cnn(CC(=O)Nc4cc(Cl)ccc4C)c(=O)c32)cc1 -4.38%
O=C(CSc1n[nH]c(-c2ccccc2Cl)n1)NCCc1ccccc1 -15%
COc1ccc(N2CCN(C(=O)c3cccn3-c3nnc(N4CCCC4)s3)CC2)cc1 -5.77%
CCc1nn(CCCC(=O)NCc2ccc(OC(C)C)cc2)c(=O)c2cc3occc3n12 -5.96%
CCOc1cc(CNS(=O)(=O)c2ccc3c(c2)C(C)(C)C(=O)N3)cc(OCC)c1OCC -10.6%
CC(NC(=O)Cn1ccc2cc(S(=O)(=O)N3CCCCCC3)ccc21)c1ccccc1 (configuration not stated) -32.5%
COc1ccc(C)cc1NC(=O)Nc1nnc(N2CCCCC2)s1 23.1%
CCOC(=O)C1CCCN(c2nc3c(S(=O)(=O)c4ccc(CC)cc4)nnn3c3ccc(Cl)cc23)C1 (configuration not stated) 14.2%
Cc1c(C(=O)N2CCC(C)CC2)c(S(=O)(=O)N(Cc2ccccc2)C(C)(C)C)c(C)n1C -24.8%
CN1CCN(C(=O)C(=O)Nc2c3c(nn2-c2ccc(Cl)cc2)CSC3)CC1 -11.4%
CCOCCCn1c(=N)c(C(=O)NCc2cccnc2)cc2c(=O)n3ccccc3nc21 -2.33%
Cc1ccc(N2C(=O)CCSC23C(=O)N(Cc2ccccc2)c2ccccc23)cc1 (configuration not stated) -8.71%
Cn1c(=O)c(C(=O)O)nn(-c2ccccc2)c1=O -8.2%
Cc1ccc(NC(=O)Nc2nnc(N3CCCC3)s2)cc1C 21.7%
COC(=O)c1ccc(C(=O)OC)c(NC(=O)CN(c2ccccc2)S(=O)(=O)N(C)C)c1 -36.8%
COc1cccc(CNC(=O)CSC2=Nc3ccccc3N=C(c3ccc(F)cc3)C2)c1 -37.1%
CCOc1ccccc1CNC(=O)C1CCCN(c2nnc(C)c3c(C)n(-c4ccccc4)nc23)C1 (configuration not stated) -36.9%
COCCCNC(=O)CN1C(=O)c2cccnc2Sc2ccccc21 -4.36%
O=C(Nc1cccc(C(F)(F)F)c1)Nc1nnc(N2CCCCCC2)s1 0.64%
CC(=O)c1cccc(NC(=O)CN2C(=O)CCc3cc(S(=O)(=O)N4CCCCC4)ccc32)c1 -14.1%
COc1ccccc1N1CCN(C(=O)c2cc(-c3ccc(C)c(F)c3)on2)CC1 -15.3%
